Test results taken from PMC12203670.
These are yes or no findings as the source states them, for the method shown. Binding seen in cells or lysates may run through a third protein. Some results given as binding are weak or reduced against the parent protein; the word gives no strength. Tags and fused reporters may be left off the sequences shown.

Protein sequences, listed by entry. Tags and fused reporters are not part of them. Lines headed by an entry give the natural chain unless they say otherwise; changes in a name come on top. Chains listed by the source or under a name are the forms on record and can include a tag or linker.
UniProt P52480: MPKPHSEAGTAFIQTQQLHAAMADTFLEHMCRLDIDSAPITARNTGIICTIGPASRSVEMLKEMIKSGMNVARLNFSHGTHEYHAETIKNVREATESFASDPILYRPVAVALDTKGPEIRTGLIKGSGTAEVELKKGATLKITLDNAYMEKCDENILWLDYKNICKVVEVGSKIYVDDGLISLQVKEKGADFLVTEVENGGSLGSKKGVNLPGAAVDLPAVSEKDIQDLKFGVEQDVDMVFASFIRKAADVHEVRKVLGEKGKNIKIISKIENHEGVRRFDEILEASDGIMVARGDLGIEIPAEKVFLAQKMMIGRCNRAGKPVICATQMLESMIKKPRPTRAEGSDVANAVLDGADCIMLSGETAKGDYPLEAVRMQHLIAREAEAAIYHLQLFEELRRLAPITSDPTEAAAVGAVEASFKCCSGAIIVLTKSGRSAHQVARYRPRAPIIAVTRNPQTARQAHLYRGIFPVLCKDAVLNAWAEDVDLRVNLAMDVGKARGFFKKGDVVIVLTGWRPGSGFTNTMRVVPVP
PKM2 (pyruvate kinase M2), endogenous in NRVMs (P11980-2, form named): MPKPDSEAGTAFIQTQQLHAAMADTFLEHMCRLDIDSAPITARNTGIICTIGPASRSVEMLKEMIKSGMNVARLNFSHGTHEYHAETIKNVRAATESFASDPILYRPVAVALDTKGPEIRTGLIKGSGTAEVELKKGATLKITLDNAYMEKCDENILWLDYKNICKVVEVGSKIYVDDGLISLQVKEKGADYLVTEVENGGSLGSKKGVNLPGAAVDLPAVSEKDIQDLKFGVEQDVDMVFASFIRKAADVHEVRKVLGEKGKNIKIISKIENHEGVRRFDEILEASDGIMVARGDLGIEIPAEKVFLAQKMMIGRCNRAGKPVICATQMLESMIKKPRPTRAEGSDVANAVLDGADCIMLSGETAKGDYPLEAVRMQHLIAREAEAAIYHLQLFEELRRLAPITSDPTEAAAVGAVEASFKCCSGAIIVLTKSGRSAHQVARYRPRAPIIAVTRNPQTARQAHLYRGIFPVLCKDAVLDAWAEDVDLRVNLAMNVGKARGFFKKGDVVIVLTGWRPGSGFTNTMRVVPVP

Experiments:
[1] = target: T1, Flag-MTX2 (full-length MTX2), plasmid, in Mtx2 KO H9C2 cells (UniProt O88441); assay: co-IP; Mtx2 KO H9C2 cells co-expressing Flag-MTX2 (full length or deletion mutants) and GST-PKM2; whole-cell lysates immunoprecipitated with anti-FLAG antibody
T1 sequence: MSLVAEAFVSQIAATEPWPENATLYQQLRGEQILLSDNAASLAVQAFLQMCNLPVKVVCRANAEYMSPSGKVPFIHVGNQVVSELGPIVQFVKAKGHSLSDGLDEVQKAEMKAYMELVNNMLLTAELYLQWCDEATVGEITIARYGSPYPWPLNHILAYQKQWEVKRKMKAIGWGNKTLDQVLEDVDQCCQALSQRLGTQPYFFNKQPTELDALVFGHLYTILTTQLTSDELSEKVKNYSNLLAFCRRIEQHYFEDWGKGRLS

Flag-MTX2 (Δ154-195 AA) = target: T2, Flag-MTX2 (Δ154-195 AA) (UniProt O88441); assay: as above
T2 sequence: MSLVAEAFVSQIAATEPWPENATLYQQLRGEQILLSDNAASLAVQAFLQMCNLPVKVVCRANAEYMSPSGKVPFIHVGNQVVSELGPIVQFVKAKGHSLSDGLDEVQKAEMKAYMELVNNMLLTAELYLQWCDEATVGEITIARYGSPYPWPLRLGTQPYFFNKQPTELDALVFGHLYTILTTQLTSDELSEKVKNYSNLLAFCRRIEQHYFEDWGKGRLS

Flag-MTX2 (Δ41-161 AA) = target: T3, Flag-MTX2 (Δ41-161 AA) (UniProt O88441); assay: as above
T3 sequence: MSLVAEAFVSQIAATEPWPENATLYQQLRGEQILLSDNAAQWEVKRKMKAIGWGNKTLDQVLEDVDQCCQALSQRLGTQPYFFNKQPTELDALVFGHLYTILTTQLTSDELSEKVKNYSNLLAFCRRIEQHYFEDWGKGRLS

[2] = target: T4, Flag-tagged MTX2 (metaxin 2), adenovirus, in NRVMs (UniProt O88441); assay: co-IP; lysates of NRVMs infected with Ad-Flag-Mtx2; immunoprecipitated with anti-Flag antibody; blotted for endogenous PKM1 and PKM2
T4 sequence: T1 sequence

binding [2]	Substance	binding [1]	binding (Flag-MTX2 (Δ154-195 AA))	binding (Flag-MTX2 (Δ41-161 AA))
	GST-PKM2, plasmid, in Mtx2 KO H9C2 cells (from UniProt P52480 1-531) (enzyme)	binds	binds	no binding
no binding	PKM1 (pyruvate kinase M1), endogenous in NRVMs (from UniProt P11980-1 1-531) (enzyme)			
binds	PKM2 (pyruvate kinase M2), endogenous in NRVMs (from UniProt P11980-2 1-531) (enzyme)			
